Source: PubChem BioAssay AID651820 (National Center for Advancing Translational Sciences (NCATS), 2012)
Screen size: about 340,000 compounds; about 12,000 (3.5%) were called active. The inconclusive results got no clear call from the source; some entries with a clear call stand among them for comparison. Calls follow the shape of the dose curve; as a rule, active = well fitted inhibition curve with a large enough effect; inconclusive = small, poorly fitted or top-dose-only effect, or another doubt; inactive = no such curve, though single readings can be large or run the other way. Potencies of inconclusive entries are left out as doubtful fits.

Experiment: qHTS Assay for Inhibitors of Hepatitis C Virus (HCV)
Settings: Huh7.5.1 HCVcc-Cre (HCVcc is cell-culture hepatitis C virus) infection, luciferase reporter, 44 h; series mostly up to 41.8 µM
Method in brief: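 Luciferase read-out (15 sec integration) after a 15 min room-temperature substrate step quantifies HCVcc-Cre infection. Cells, 1,000 per well, had compound added 4 h post-plating, then virus at ~0.5 moi, and were cultured 44 h.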
Potency is read from the fitted curve at half-maximal effect; tags tell the direction and shape of the fitted curve.

SMILES	Potency
Cc1csc(NC(=O)c2ccco2)n1	inactive
O=C(COC(=O)/C=C/c1ccco1)NCCN1C(=O)CSC1=O	inactive
CCN(CC)S(=O)(=O)c1ccc(N(C)Cc2ccc(C(F)(F)F)cc2)nc1	active: 14.1 µM
CCn1nc(NC(C)=O)c2cc3ccc(C)cc3nc21	inconclusive [inhibitor, single point]
CCC(=O)Nc1ccc2c(c1)ncn2-c1ccccc1C	inconclusive [inhibitor, single point]
CC(C)Cn1c(N)c(C(=O)CSc2ncnc3sc4c(c23)CCCC4)c(=O)n(C)c1=O	inconclusive [inhibitor, full curve]
CCOc1ccc(OCC)c(NC(=O)CSc2nc3cccnc3n2C)c1	active: 6.31 µM
O=C(Cn1c2c(c(-c3ccccc3)cc1=O)CCCC2)N1CCCCCC1	inconclusive [inhibitor, partial curve]
CCC1CSC(Nc2ccc(C(=O)/C=C/c3ccc(OC)c(OC)c3)cc2)=N1 (centres undefined)	inconclusive [inhibitor, partial curve, poor fit]
Cc1ccc(N)cc1S(=O)(=O)N(C)C	inconclusive [inhibitor, single point]
O=C(CSc1nc2nn(-c3ccccc3)c(=O)c-2c2n1CCCCC2)c1ccc(OC(F)F)cc1	active: 7.94 µM
CCOC(=O)C1=C(COC(=O)CCOc2ccc(C)cc2)NC(=O)NC1C (centres undefined)	inconclusive [inhibitor, single point]
C/C(=C1\SC(N2CCOCC2)=NC1=O)c1ccc(C)cc1	inconclusive [inhibitor, partial curve]
CCOc1ccc2nc(SCCNS(=O)(=O)c3ccccc3)sc2c1	inconclusive [inhibitor, partial curve, poor fit]
CCCS(=O)(=O)c1nc(S(=O)(=O)c2ccc(C)cc2)c(NCc2ccccn2)s1	inconclusive [inhibitor, partial curve]
OC1(C(F)(F)F)CC(c2ccc3ccccc3c2)=NO1 (centres undefined)	inactive
CCOC(=O)c1oc2ccccc2c1NC(=O)C(C)(C)C	inconclusive [inhibitor, single point]
CN(C)c1ccc(N=Cc2nc(-c3ccccc3)oc2OC(=O)c2ccccc2)cc1	inactive
CCN=C1SC(C(=O)Nc2cccc(C(=O)O)c2)CC(=O)N1CC (centres undefined)	inactive
COc1ccccc1NC(=O)COc1ccc(C(=O)OCC(=O)NC(C)(C)C)cc1OC	inconclusive [inhibitor, partial curve, poor fit]
O=C(Nc1cccc(NC(=O)c2ccccc2Cl)c1)c1ccc(F)cc1	inconclusive [inhibitor, full curve, poor fit]
COc1cccc(-c2nn(C)c3sc(C(=O)NCc4ccccn4)cc23)c1	active: 10 µM

SMILES	Potency
COC(=O)c1ccsc1NC(=O)CN1CCN(c2ncccn2)CC1	inactive
O=C1NC(=Nc2ccccc2Cl)SC1(CO)CO	inactive
CC1Cc2ccccc2N1C(=O)C1CCCN(S(=O)(=O)c2cccc3cccnc23)C1 (centres undefined)	inconclusive [inhibitor, single point]
Cc1c(CCC(=O)NCCCn2ccnc2)c(=O)oc2c(C)c3oc4c(c3cc12)CCCC4	inconclusive [inhibitor, partial curve]
COc1cccc(NC(=O)CC(=O)c2ccccc2)c1	inconclusive [inhibitor, single point]
Cc1cc(NC(=O)C(C)Oc2ccc(Cl)cc2Cl)n(-c2ccccc2)n1 (centres undefined)	inconclusive [inhibitor, partial curve, poor fit]
CCc1c(C)sc(NC(=O)c2cccs2)c1C#N	inconclusive [inhibitor, full curve, poor fit]
O=C(CSc1c(F)c(F)cc(F)c1F)Nc1ccc(C2SCCS2)cc1	inconclusive [inhibitor, partial curve]
Clc1ccc(CNc2ccccc2NCc2ccc(Cl)nc2)cn1	inconclusive [inhibitor, single point]
CCOc1cccc(=O)c2c(C)n(C)c(C)c12	inconclusive [inhibitor, partial curve, poor fit]
O=C(NNC(=S)Nc1cccc(C(F)(F)F)c1)c1ccccc1Cl	inconclusive [inhibitor, single point]
C=CCn1cccc(C(=O)Nc2ccc(OC)cc2OC)c1=O	inconclusive [inhibitor, single point]
COc1ccc(N2CCN(C(CNC(=O)C(=O)NCCC3=CCCCC3)c3ccco3)CC2)cc1 (centres undefined)	inconclusive [inhibitor, full curve, poor fit]
CCOc1ccc2oc(C(=O)OCC(=O)N(CC(C)C)c3c(N)n(Cc4ccccc4)c(=O)[nH]c3=O)c(C)c2c1	inconclusive [inhibitor, single point]
COc1ccc(C2C3=C(CC(C)(C)CC3=O)Nc3c2c(=O)[nH]c(=O)n3Cc2ccccc2)cc1OC (centres undefined)	inactive
O=S(=O)(Nc1ccc(-c2nc3cccnc3s2)cc1)c1cc(F)ccc1F	inactive
COCCCNC(=O)COc1ccc(Cl)c(C)c1	inactive
NCCCn1c(C(=O)c2cc(Cl)c(N)c(Cl)c2)c2ccc([N+](=O)[O-])cc2[n+]1[O-]	inconclusive [inhibitor, full curve]
COc1cc([N+](=O)[O-])cc(/C=N/NC(=O)c2ccc(C)nc2)c1O	inconclusive [inhibitor, single point]
O=C(O)CCC(=O)N1CCCC1	inactive
CS(=O)(=O)N(CC(=O)Nc1ccc(Cl)c(Cl)c1)C1CCCCC1	inconclusive [inhibitor, single point]
COC(=O)c1ccc(NC(=O)CSc2nnc(-c3ccccc3Br)n2-c2ccccc2)cc1	inconclusive [inhibitor, single point]
